{"source": "the antibiotic and cytotoxicity screens of Wong et al. (2023)", "note": "This is one part of the list."}
{"tested_on": "HSkMC (human skeletal muscle cells)", "experiment": "cytotoxicity call (relative viability < 0.9)", "settings": "10 µM"}
{"compound": "NCC[C@H]1CC[C@H](NC(=O)C2CCCCC2)[C@@H](CO)O1", "cytotoxicity call": "inactive"}
{"compound": "CC(C)NC(=O)Nc1ccc2c(c1)C(=O)N([C@@H](C)CO)C[C@@H](C)[C@@H](CN(C)C(=O)Nc1cccc3ccccc13)OCCCC[C@@H](C)O2", "cytotoxicity call": "inactive"}
{"compound": "C[C@H]1CCCCO[C@H](CN(C)Cc2ccc(Cl)c(Cl)c2)[C@@H](C)CN([C@@H](C)CO)C(=O)c2cc(NC(=O)NC3CCCCC3)ccc2O1", "cytotoxicity call": "active"}
{"compound": "COc1ccc([Si](C)(C)[C@@H]2[C@@H](CC(=O)N(CCO)Cc3ccccc3)O[C@]3(C(=O)N(Cc4cccc(N5CCCCC5=O)c4)c4ccccc43)[C@H]2C)cc1", "cytotoxicity call": "inactive"}
{"compound": "C[C@@H]1CCCCO[C@@H](CN(C)C(=O)Nc2ccc(C(F)(F)F)cc2)[C@H](C)CN([C@@H](C)CO)C(=O)c2cc(NS(C)(=O)=O)ccc2O1", "cytotoxicity call": "inactive"}
{"compound": "C[C@H](CO)N1C[C@H](C)[C@@H](CN(C)Cc2ccc(C(F)(F)F)cc2)OCCCC[C@H](C)Oc2ccc(NS(=O)(=O)c3cccs3)cc2C1=O", "cytotoxicity call": "inactive"}
{"compound": "CO[C@@H]1CN(C)C(=O)c2ccc(NC(=O)c3cc(C)on3)cc2OC[C@@H](C)N(S(=O)(=O)c2ccccc2)C[C@H]1C", "cytotoxicity call": "inactive"}
{"compound": "C[C@@H]1CCCCO[C@@H](CN(C)S(=O)(=O)c2ccccc2)[C@@H](C)CN([C@H](C)CO)C(=O)c2cc(NS(=O)(=O)c3ccc(Cl)cc3)ccc2O1", "cytotoxicity call": "inactive"}
{"compound": "C[C@H](CO)N1C[C@H](C)[C@H](CN(C)Cc2ccc(C(F)(F)F)cc2)Oc2ccc(NC(=O)Cc3cn(C)c4ccccc34)cc2C1=O", "cytotoxicity call": "inactive"}
{"compound": "NC(=S)N[C@H]1C[C@@H]2C=C[C@H]1C2", "cytotoxicity call": "inactive"}
{"compound": "C[C@H](CO)N1C[C@H](C)[C@@H](CN(C)C(=O)CN(C)C)Oc2cc(C#CC(C)(C)O)ccc2S1(=O)=O", "cytotoxicity call": "inactive"}
{"compound": "CN(C)CCOC(C)(c1ccccc1)c1ccccn1.O=C(O)CCC(=O)O", "note": "(stereo not given)", "cytotoxicity call": "inactive"}
{"compound": "CCNC(=O)[C@@H]1CCCN1C(=O)[C@H](CCCN=C(N)N)NC(=O)[C@H](CC(C)C)NC(=O)[C@@H](COC(C)(C)C)NC(=O)[C@H](Cc1ccc(O)cc1)NC(=O)[C@H](CO)NC(=O)[C@H](Cc1c[nH]c2ccccc12)NC(=O)[C@H](Cc1c[nH]cn1)NC(=O)[C@@H]1CCC(=O)N1", "cytotoxicity call": "inactive"}
{"compound": "C[C@@H]1CN([C@H](C)CO)C(=O)Cc2cc(NC(=O)Cn3cnnn3)ccc2O[C@@H]1CN(C)CC1CCCCC1", "cytotoxicity call": "inactive"}
{"compound": "C[C@@H]1CN([C@@H](C)CO)C(=O)c2cc(NC(=O)Nc3ccccc3)ccc2O[C@@H]1CN(C)Cc1ccc(-c2ccccc2)cc1", "cytotoxicity call": "active"}
{"compound": "Clc1ccc2ncccc2c1", "cytotoxicity call": "inactive"}
{"compound": "C[C@H]1CN([C@@H](C)CO)C(=O)CCCn2nncc2CO[C@H]1CN(C)S(=O)(=O)c1ccc(-c2ccccc2)cc1", "cytotoxicity call": "inactive"}
{"compound": "C[C@H](NC(=O)c1c(N)nn2cccnc12)c1cc2cccc(C#Cc3cnn(C)c3)c2c(=O)n1-c1ccccc1", "cytotoxicity call": "active"}
{"compound": "C[C@@H]1CCCCO[C@H](CN(C)C(=O)Nc2ccc(C(F)(F)F)cc2)[C@H](C)CN([C@@H](C)CO)C(=O)c2cc(NS(C)(=O)=O)ccc2O1", "cytotoxicity call": "inactive"}
{"compound": "C[C@H]1CN([C@@H](C)CO)C(=O)Cc2cc(NS(=O)(=O)c3ccccc3)ccc2O[C@@H]1CN(C)S(C)(=O)=O", "cytotoxicity call": "inactive"}
{"compound": "COc1ccc(NC(=O)Nc2ccc3c(c2)CC(=O)N([C@H](C)CO)C[C@@H](C)[C@H](CN(C)S(C)(=O)=O)O3)cc1", "cytotoxicity call": "inactive"}
{"compound": "C[C@H](CO)N1C[C@H](C)[C@H](CN(C)C(=O)Nc2ccc(C(F)(F)F)cc2)Oc2c(NC(=O)NC3CCCCC3)cccc2C1=O", "cytotoxicity call": "inactive"}
{"compound": "C[C@H](CO)N1C[C@H](C)[C@H](CN(C)C(=O)NC2CCCCC2)OCCCC[C@H](C)Oc2ccc(NC(=O)Nc3ccc(C(F)(F)F)cc3)cc2C1=O", "cytotoxicity call": "inactive"}
{"compound": "Cc1ccc(S(=O)(=O)N(C)C[C@@H]2OCCCC[C@@H](C)Oc3ccc(NC(=O)Nc4ccc5c(c4)OCO5)cc3C(=O)N([C@@H](C)CO)C[C@H]2C)cc1", "cytotoxicity call": "inactive"}
{"compound": "CCS(=O)(=O)N1CC[C@]2(CC1)CN([C@@H](CO)c1[nH]c3cc(ccc3c12)OC)S(=O)(=O)c1cccc(c1)OC", "cytotoxicity call": "inactive"}
{"compound": "C[C@H](CO)N1C[C@H](C)[C@@H](CN(C)S(=O)(=O)c2cccs2)Oc2ccc(NS(=O)(=O)c3ccccc3)cc2C1=O", "cytotoxicity call": "inactive"}
{"compound": "CN1C(=O)[C@H]2[C@H](C1=O)[C@H]1C=C(c3ccc(CO)cc3)[C@@H]2[C@H](c2cccs2)N1Cc1cccc(OC(F)(F)F)c1", "cytotoxicity call": "inactive"}
{"compound": "O=C(C[C@H]1CC[C@@H]2[C@H](COC[C@@H](O)CN2Cc2cccc(C(F)(F)F)c2)O1)NCCc1ccncc1", "cytotoxicity call": "inactive"}
{"compound": "C[C@H](CO)N1C[C@H](C)[C@H](CN(C)S(=O)(=O)c2ccc(F)cc2)Oc2c(NS(C)(=O)=O)cccc2C1=O", "cytotoxicity call": "inactive"}
{"compound": "CCn1cc(-c2ccc3ccccc3n2)c(=S)c2ccccc21", "cytotoxicity call": "inactive"}
{"compound": "COc1ccc(NC(=O)Nc2ccc3c(c2)C(=O)N([C@@H](C)CO)C[C@H](C)[C@H](CN(C)C(=O)Nc2ccc(C(F)(F)F)cc2)O3)cc1", "cytotoxicity call": "inactive"}
{"compound": "C[C@@H]1CN([C@@H](C)CO)C(=O)CCCn2nncc2CO[C@H]1CN(C)S(=O)(=O)c1ccc(Oc2ccccc2)nc1", "cytotoxicity call": "inactive"}
{"compound": "C[C@@H]1CN([C@H](C)CO)C(=O)Cc2cc(NC(=O)Nc3ccc(C(F)(F)F)cc3)ccc2O[C@H]1CN(C)Cc1ccc(-c2ccccc2)cc1", "cytotoxicity call": "active"}
{"compound": "Cc1noc(C)c1NC(=O)Nc1ccc2c(c1)C(=O)N([C@@H](C)CO)C[C@@H](C)[C@@H](CN(C)C(=O)Cc1ccccc1)OCCCC[C@@H](C)O2", "cytotoxicity call": "inactive"}
{"compound": "C[C@@H]1CN([C@H](C)CO)C(=O)Cc2cc(NC(=O)CCCCCC(=O)Nc3ccccc3N)ccc2O[C@@H]1CN(C)S(=O)(=O)c1cn(C)cn1", "cytotoxicity call": "inactive"}
{"compound": "Cc1noc(C)c1NC(=O)N(C)C[C@@H]1Oc2ccc(NS(=O)(=O)c3cccs3)cc2CC(=O)N([C@H](C)CO)C[C@H]1C", "cytotoxicity call": "inactive"}
{"compound": "C[C@@H]1CCCCO[C@H](CN(C)C(=O)Cc2ccccc2)[C@@H](C)CN([C@@H](C)CO)C(=O)c2cc(NC(=O)NC3CCCCC3)ccc2O1", "cytotoxicity call": "inactive"}
{"compound": "Cc1cc(C(=O)Nc2cccc3c2O[C@H](CN(C)Cc2ccccc2)[C@@H](C)CN([C@H](C)CO)C3=O)n(C)n1", "cytotoxicity call": "inactive"}
{"compound": "C[C@@H]1CN([C@H](C)CO)C(=O)CCCn2nncc2CO[C@@H]1CN(C)C(=O)Nc1ccc(C(F)(F)F)cc1", "cytotoxicity call": "inactive"}
{"compound": "Cc1cc(O)c(C=O)c2c1C(=O)Oc1c(C)c(O)c3c(c1O2)C(O)OC3=O", "note": "(stereo not given)", "cytotoxicity call": "inactive"}
